For 1 molecule, IC50, integrin-mediated activation, LN229 cells with CAGA12 reporter cells results are on record in patent US20210122814A1.

The assay has as its target all TGFβ1 LLCs in the LN229 cell-based activation assays (LTBP1-/LTBP3-, GARP- and LRRC33-proTGFβ1). As to the kind of experiment: cell-based or functional assay.

B1: Ab6 (antibody)
heavy: EVQLVESGGGLVQPGGSLRLSCTASGFTFSSFSMDWVRQAPGKGLEWVSYISPSADTIYYADSVKGRFTISRDNAKNTLYLQMNSLRAEDTAVYYCARGVLDYGDMLMPWGQGTLVTVSSASTKGPSVFPLAPCSRSTSESTAALGCLVKDYFPEPVTVSWNSGALTSGVHTFPAVLQSSGLYSLSSVVTVPSSSLGTKTYTCNVDHKPSNTKVDKRV[… human IgG4 Fc with S228P (EU numbers) …]
light: DIQMTQSPSSLSASVGDRVTITCQASQDITNYLNWYQQKPGKAPKLLIYDASNLETGVPSRFSGSGSGTDFTFTISSLQPEDIATYYCQQADNHPPWTFGGGTKVEIKRTVAAPSVFIFPPSDEQLKSGTASVVCLLNNFYPREAKVQWKVDNALQSGNSQESVTEQDSKDSTYSLSSTLTLSKADYEKHKVYACEVTHQGLSSPVTKSFNRGEC
B1 had an IC50, integrin-mediated activation, LN229 cells with CAGA12 reporter cells of 1.15 to 1.42 nM.
